We go through 34 variants from the RNAGym collection of RNA variant scans (doi:10.1093/nar/gkz1192).

First the molecules themselves.
B1: CPEB3 Ribozyme (parent)
chain: UAACAGGGGGCCACAGCAGAAGCGUUCACGUCGCAGCCCCUGUCAGAUUCUGGUGAAUCUGCGAAUUCUGCUGUAUAUCUC

The source gives no read counts; variants with many changes may rest on few reads.

Variants of B1 are the subject of this data set. As to the kind of experiment: self-cleavage, relative activity (ratio to wild type); higher = more cleavage; in vitro, sequencing. In short, it runs like this:
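Relative activity compares each variant's cleaved/total read fraction with that of the unmutated ribozyme. To get these fractions, barcoded CPEB3 ribozyme libraries from rounds of error-prone PCR were transcribed with T7 RNA polymerase for 5 hours at 37°C and then given 15 min of DNase I treatment before EDTA was added. The RNAs were reverse transcribed with template switching and sequenced on Illumina, and DNA sequencing linked barcodes to variants. A minimum of 5 reads applied, and three batches were averaged.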
For UAACAGGGGGCCACAGCAGAAGGGUUCGCGUCGCAGCCCCUGUCAGAUUCUGGUGAAUCAGCGAACUCUGCUGUAUAUCUC [C23G A28G U60A U66C], the self-cleavage stood at 0.08.

As to UAACAGGGGGCCACAGCAGAAGAGUUCACGCCGCAGCCCCUGUCAGAUCCUGGUGAAUCUGCGAAUUCUGCUGUAUAUCUC [C23A U31C U49C], the self-cleavage came to 0.15.

As for UAACAGGGGGCCACAGCAGAAGGGUUCACGUCGCGGCCCCUGUCAGAUUCUGGUGAACUUGCGAAUUCUACUGUAUAUCUC [C23G A35G U58C C59U G70A], the self-cleavage turned out to be 0.05.

As to UAACAGGGGGCCACAGCAGAAGAGUUCACGUCGCAGCCCCUGUCAGAUUCUGGUGAAUCUGCGAAUUCUGCGGUAUGUCUC [C23A U72G A77G], the self-cleavage was determined as 0.06.

With UAACAGGGGGCCACAGCAGAAGAGUUCACGUCGCAGCCCCUGUCAGAUACUGGUGAAUCUGCGAAUUCUGCAGUAUAUCUC [C23A U49A U72A], the self-cleavage is 0.1.

On to UAACAGGGGGCCACAGCAGAAGGGUUCACGCCGCAGCCCCUGUCAGGUUCUGGUGAAUCUGCGGAUUCUGCUGUAUAUCUC [C23G U31C A47G A64G], for which the self-cleavage came to 0.07.

With UAACAGGGGGCCACAGCAGAAGGGUUCACGUCGCAGCCCCUGUCAGAUUCUGGUGAAUACGCGAAUUCUGCCGUAUAUCUC [C23G C59A U60C U72C], the self-cleavage is 0.06.

Regarding UAACAGGGGGCCACAGCAGAAGGGUUCACGUCGCAGCCCCCGUCAGAUUCUGGUGAAUCUGCUAGUUCUGCUGUAUAUCUC [C23G U41C G63U A65G], the self-cleavage was determined as 0.07.

On to UAACAGGGGGCCACAGCAGAAGGGUUCACGUCGCAGCCCCUGUCAGUUUCUGAUGAAUCUGCGAUUCCAGCCGUAUAUCUC [C23G A47U G53A A65U U67C U69A U72C], for which the self-cleavage is 0.04.

Take UAACAGGGGGCCACAGCAGAAGGGUUCACGUAGCAGCUCCUGUCAGAUUCUGGUGAAUCUGCGAAUUCUGCUGUAUACCUC [C23G C32A C38U U78C]: the self-cleavage is 0.08.

For UAACAGGGGGCCACAGCAGAAGGGUUCGCGUCGCAGCCCCUGUCAGAUACUGGUGAAUCUGCGAAUUCUGCUGUAUAUCUC [C23G A28G U49A], the self-cleavage amounted to 0.18.

Turning to UAACAGGGGGCCACAGCAGAAGGGUCCACGUCGCAGCCCCUGGCAGAUUCUGGUGAAUCUGCGAAUUCUGCUGUGUAUCUC [C23G U26C U43G A75G], the self-cleavage came out at 0.06.

UAACAGGGGGCCACAGCAGAAGGGUUCACGUCGCAGCCCCUGUCAGGUUCUGGUGAAUCUGCGGAUUCUGCUGUAUAUCUC [C23G A47G A64G]: the self-cleavage worked out at 0.14.

UAACAGGGGGCCACAGCAGAAGAGUUCACGUCGCAGCCCCUGCCAGAUUCUGGUAGAUCUGCGAAUUCUGCUGUAUAUCCC [C23A U43C G55A A56G U80C]: the self-cleavage is 0.13.

Turning to UAACAGGGGGCCACAGCAGAAGGGUUCACGUCGCAGCCCCUGUCAGAUUCUGGUGAAUCUGCGGAUUCUGCUGUAAAUCUC [C23G A64G U76A], the self-cleavage was determined as 0.18.

As to UAACAGGGGGCCACAGCAGAAGGGUUCACGUCGCUGCCCCAGUCAGAUUCUGGUGAAUCUGAGAAUCCUGCUGUAUAUCUC [C23G A35U U41A C62A U67C], the self-cleavage was determined as 0.05.

Regarding UAACAGGGGGCCACAGCAGAAGGGCUCAGGUCGCAGCCCCUGUCAGAUUCUGGUGAAUCUGCGAAUUCUGCUGUAUAUCUC [C23G U25C C29G], the self-cleavage is 0.37.

Turning to UAACAGGGGGCCACAGCAGAAGGGUUCACGUCGCAGCCCCUGUCUGAUUCUGGUGAAUCUGCGAAUUCUGCUGUAUUUCUC [C23G A45U A77U], the self-cleavage worked out at 0.09.

For UAACAGGGGGCCACAGCAGAAGGGUUCACGUCGCUGCCCCUGUCAGAUUCUGGUGAAUCUGCGAAUUCUGCUGUGUAUCUC [C23G A35U A75G], the self-cleavage was determined as 0.11.

Regarding UAACAGGGGGCCACAGCAGAAGAGUUCACGCCGCAGCCCCCGUCAGAUACUGGUGAAUCUGCGAAUUCUGCUGUAUACCUC [C23A U31C U41C U49A U78C], the self-cleavage was 0.13.

On to UAACAGGGGGCCACAGCAGAAGGGUCCACGUCGCAGCCCCUGCUAGACUCUGGUGAAUCCGCGAGUUCUGCUGUAUAUCUC [C23G U26C U43C C44U U48C U60C A65G], for which the self-cleavage turned out to be 0.05.

As to UAACAGGGGGCCACAGCAGAAGGGUUCACGCUGCAGCCCCUGUCGGAUUCUGGUGAAUCUGCGAAUUCUGCUGUAUAUCUC [C23G U31C C32U A45G], the self-cleavage came to 0.05.

In the case of UAACAGGGGGCCACAGCAGAAGGGUUCACGACACAGCCCCUGUCAGAUUCUGGUGAAUCUGCGAAUUCUGCUGUAUAUCUA [C23G U31A G33A C81A], the self-cleavage was 0.07.

UAACAGGGGGCCACAGCAGAAGGGUUCACGACGCAGCCCCUGUCAGAUUCUGGUGGAUCUGCGAAUCCUGCUGUAUAUCUC [C23G U31A A56G U67C]: the self-cleavage came out at 0.12.

With UAACAGGGGGCCACAGCAGAAGGGUUCACGUCGCAGCCCCUGUCAGAUUCUGGUGAAUCUGAGAAUUCUGCGGUAUAUCUC [C23G C62A U72G], the self-cleavage worked out at 0.09.

For the variant UAACAGGGGGCCACAGCAGAAGAGUUCACGUCGCAGCCCCUGUCAGAUUCAGGUGAAUCUGCGUGUUCUGCCGUAUAUCUC [C23A U51A A64U A65G U72C], the self-cleavage was determined as 0.07.

On to UAACAGGGGGCCACAGCAGAAGAGUUCACGUCGCAGCCCCUGUCAGAUUCUGGUGAAUCCGCGAAUUCUGAUGUAUAUCUC [C23A U60C C71A], for which the self-cleavage is 0.06.

In the case of UAACAGGGGGCCACAGCAGAAGGGUUCACAUCGCGGCCCCUGUCAGAUUCUGGUGAAUCUGCGAGUUCUGCUGUAUAUCCC [C23G G30A A35G A65G U80C], the self-cleavage was 0.11.

As to UAACAGGGGGCCACAGCAGAAGGGUUCACGUCGCGGCCCCUGUCAGAUUCUGGUGGAUCUGCGAAUUCUGCUGUAUAUCUC [C23G A35G A56G], the self-cleavage amounted to 0.11.

With UAACAGGGGGCCACAGCAGAAGGGUACACGUCGCAGCACCUGUCAGAUUCUGGAGAAUCUGCGAAUUCUGCUGUAUAUCUC [C23G U26A C38A U54A], the self-cleavage was found to be 0.22.

For UAACAGGGGGCCACAGCAGAAGAGUUCACGUCGCAGCCCCCGUCAGAUUCUGGUGAAUCUGCGAAUUCUGCUGUAUAACAC [C23A U41C U78A U80A], the self-cleavage was 0.3.

On to UAACAGGGGGCCACAGCAGAAGAGUUCACGCCGCAGCCCCCGUCAGAUUCUGGUGAAUCUGCGAAUUCUGCUGUAUAUCUC [C23A U31C U41C], for which the self-cleavage was 0.26.

In the case of UAACAGGGGGCCACAGCAGAAGGGUUCACGUCGCAGCCCCUUUCAGAUUCUGGUGAAUCUGCGUAUUCUGCUGUAUAUCUC [C23G G42U A64U], the self-cleavage is 0.33.

With UAACAGGGGGCCACAGCAGAAGGGUUCACGUCGCAGCCCCUUUCAGAUUCUGGUGAGUCUGCGAAUUCUGCUGUAUAUCUC [C23G G42U A57G], the self-cleavage came to 0.11.
